This is an account of results in the RNAGym collection of RNA variant scans (doi:10.1093/nar/gkz1192).

B1: CPEB3 Ribozyme (parent)
chain: UAACAGGGGGCCACAGCAGAAGCGUUCACGUCGCAGCCCCUGUCAGAUUCUGGUGAAUCUGCGAAUUCUGCUGUAUAUCUC

The source gives no read counts; variants with many changes may rest on few reads.

Variants of B1 are the subject of this series. As to the kind of experiment: self-cleavage, relative activity (ratio to wild type); higher = more cleavage; in vitro, sequencing. Summed up:
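Relative activity compares each variant's cleaved/total read fraction with that of the unmutated ribozyme. To get these fractions, barcoded CPEB3 ribozyme libraries from rounds of error-prone PCR were transcribed with T7 RNA polymerase for 5 hours at 37°C and then given 15 min of DNase I treatment before EDTA was added. The RNAs were reverse transcribed with template switching and sequenced on Illumina, and DNA sequencing linked barcodes to variants. A minimum of 5 reads applied, and three batches were averaged.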
With U25C C39A A45G C50G U60C, the self-cleavage came to 0.33.

Take U25C A57U A64U C68A: the self-cleavage was 0.28.

As for U25C A35U C38A U43G A64G U67C U78G, the self-cleavage came to 0.19.

Take U25A U43C U80C: the self-cleavage is 0.33.

Regarding U25A G33A U48C U54C A56G U67C U76A, the self-cleavage stood at 0.06.

Regarding U25A A28G U41A, the self-cleavage came to 0.28.

Consider U25C A45G G52A, for which the self-cleavage was determined as 0.5.

As to U25A C40U A45U U72A, the self-cleavage was found to be 0.13.

Regarding U25C A47G U51A U67A C71U, the self-cleavage was found to be 0.24.

Take U25C C34U U66C C71A U72A U80A: the self-cleavage stood at 0.05.

Turning to U25C C32A C44A U51C, the self-cleavage was 0.06.

In the case of U25C A35U A64U U69C, the self-cleavage was 0.03.

Regarding U25A A35U G42A, the self-cleavage turned out to be 0.21.

Turning to G24U U31C U43C U78A, the self-cleavage worked out at 0.14.

For the variant U25C C34A C50G U58G U60A, the self-cleavage was found to be 0.09.

Consider U25A A28G A45U A47U, for which the self-cleavage amounted to 0.15.

On to U25C C38A A47U, for which the self-cleavage was 0.15.

For the variant U25C A28G U67A U72C, the self-cleavage amounted to 0.05.

U25C A64G A77G: the self-cleavage came out at 0.47.

For the variant U25C A35G U69A, the self-cleavage was found to be 0.2.

Regarding U25A U26C A65G A75G, the self-cleavage was determined as 0.08.

In the case of U25A U26C U69A U80A, the self-cleavage was found to be 0.37.

Turning to U25C A35C U54C, the self-cleavage was 0.31.

Consider U25C C34A U58C, for which the self-cleavage was 0.13.

In the case of U25A C29U A35G U41C U80A, the self-cleavage was found to be 0.04.

U25A C39A A47U U80C: the self-cleavage was found to be 0.19.

Consider U25C A45U G70A, for which the self-cleavage was 0.15.

As for U25C C37U U80C, the self-cleavage was determined as 0.32.

As to U25C A35U A56U, the self-cleavage was 0.34.

Regarding U25C A45U U51C, the self-cleavage came out at 0.31.

As for U25C A28G A57G A77G, the self-cleavage came out at 0.15.

Regarding U25C A28C U41C U49C, the self-cleavage came to 0.06.

U25C A57G A64U U69C U80C: the self-cleavage amounted to 0.12.

U25A A35G A65G U69A U80C: the self-cleavage was 0.1.

Turning to U25C A35G U72C U78C, the self-cleavage is 0.38.

As to U25C A28G A57G, the self-cleavage was found to be 0.35.

With U25C A57G C59U, the self-cleavage came out at 0.02.

Regarding G24U U51G A56G A64G, the self-cleavage turned out to be 0.08.

In the case of U25C A47G A57G, the self-cleavage was 0.24.

Regarding U25C C37A U51A U54C U58A, the self-cleavage amounted to 0.17.

In the case of U25C A35G U43C U78C, the self-cleavage was found to be 0.22.

In the case of U25C A47U A56U U80C, the self-cleavage was found to be 0.5.

With U25A U26C U43A U72G U80C, the self-cleavage turned out to be 0.23.

Turning to U25C A57G C81G, the self-cleavage stood at 0.2.

Regarding U25C A35G U43A U58C U69C, the self-cleavage is 0.19.

For the variant U25A U54C U60G U72C, the self-cleavage was found to be 0.15.

On to U25C A28U A64G, for which the self-cleavage amounted to 0.33.

For U25A U41A U43C, the self-cleavage stood at 0.19.

Consider U25C A56G A57G A65U U66C, for which the self-cleavage worked out at 0.07.

For U25C A28U U49C U60A C62A U72A, the self-cleavage came out at 0.05.

Consider U25C C32A C38U, for which the self-cleavage worked out at 0.1.

In the case of U25C A65G U66C, the self-cleavage is 0.25.

On to U25C A45G C79A, for which the self-cleavage amounted to 0.32.

For U25C A35G C71A, the self-cleavage amounted to 0.13.

As for U25A U26C A45U A65G A77U, the self-cleavage came out at 0.09.

As to U25A C29U A47G U69A A75U, the self-cleavage amounted to 0.05.

Take U25A U31C U43A U78C: the self-cleavage came out at 0.09.

As for U25C C27U A47U, the self-cleavage was determined as 0.15.

In the case of U25A A45G U58A, the self-cleavage was found to be 0.17.

Turning to U25C A47G U66C, the self-cleavage was determined as 0.47.

Regarding U25C A45U U49G C50A U51C U60C A64U, the self-cleavage is 0.1.

With U25A A28G A45C U48C, the self-cleavage came out at 0.15.

For U25C C27U U43G U54A, the self-cleavage came out at 0.11.

Take U25C A57G U58A U80C: the self-cleavage came to 0.21.

For the variant U25C A35G A65G U69G, the self-cleavage stood at 0.09.

For U25A U43A U49C G70A U78C, the self-cleavage is 0.07.

As to U25C A35U A45G U60A, the self-cleavage is 0.16.

On to U25A U48C G73A, for which the self-cleavage was determined as 0.07.

As to U25A G30C U41C U78C, the self-cleavage is 0.17.

Take U25A U31C C50U: the self-cleavage was determined as 0.34.

Regarding U25C A28G C29A, the self-cleavage came to 0.27.

Regarding U25C C32A A56G C71U U80A, the self-cleavage stood at 0.06.

For the variant U25C A28U C29U U31A U78C, the self-cleavage came to 0.29.

As for U25A U41A U78C, the self-cleavage amounted to 0.1.

Consider U25C A47U U48C A57G, for which the self-cleavage stood at 0.09.

Consider U25C C34G A45G U69C, for which the self-cleavage was determined as 0.14.

For U25A U26C A56G U67G, the self-cleavage was determined as 0.05.

Take U25C C38A G61A U69C: the self-cleavage was found to be 0.08.

Regarding U25C A28G U60C U78C, the self-cleavage stood at 0.1.

In the case of U25C A35G C71U U72C U80C, the self-cleavage turned out to be 0.2.

With U25A A56U A65G A77U, the self-cleavage is 0.32.

Turning to U25A A35U U48C, the self-cleavage amounted to 0.38.

Take U25A U41C U48C U49G: the self-cleavage came out at 0.17.

Regarding U25A A45G G61A U67A, the self-cleavage stood at 0.13.
